{"source": "ChEMBL document CHEMBL1932938", "about": "“From COX-2 inhibitor nimesulide to potent anti-cancer agent: synthesis, in vitro, in vivo and pharmacokinetic evaluation” (Eur J Med Chem, 2012)", "system": "NCI-H322M", "conditions": "Homo sapiens, 48 h"}
{"smiles": "Cc1ccc(C)c(COc2cc(NC(=O)c3ccc4c(c3)OCO4)ccc2N(C)S(C)(=O)=O)c1", "values": [{"measurement": "GI50", "result": 0.468, "unit": "µM"}, {"measurement": "TGI", "result": "> 100", "unit": "µM"}, {"measurement": "CC50", "setting": "read-out: LC50 (the source's name)", "result": "> 100", "unit": "µM"}]}
